Reference: US20240317838A1, “LACTOFERRIN COMPOSITIONS AND METHODS OF USE” (LACTEA THERAPEUTICS LLC, priority 2021, published 2024)

Tested on: ECM of Caco-2 cells
Assay: ECM binding by immunofluorescent imaging in Caco-2 cells
Conditions: varying concentrations, 37° C., two hours

B1: API-E2: bovine lactoferrin purified from raw, untreated milk by cation exchange chromatography and filtration according to Example 1 (protein)
chain: APRKNVRWCTISQPEWFKCRRWQWRMKKLGAPSITCVRRAFALECIRAIAEKKADAVTLDGGMVFEAGRDPYKLRPVAAEIYGTKESPQTHYYAVAVVKKGSNFQLDQLQGRKSCHTGLGRSAGWVIPMGILRPYLSWTESLEPLQGAVAKFFSASCVPCIDRQAYPNLCQLCKGEGENQCACSSREPYFGYSGAFKCLQDGAGDVAFVKETTVFENLPEKADRDQYELLCLNNSRAPVDAFKECHLAQVPSHAVVARSVDGKEDLIWKLLSKAQEKFGKNKSRSFQLFGSPPGQRDLLFKDSALGFLRIPSKVDSALYLGSRYLTTLKNLRETAEEVKARYTRVVWCAVGPEEQKKCQQWSQQSGQNVTCATASTTDDCIVLVLKGEADALNLDGGYIYTAGKCGLVPVLAENRKTSKYSSLDCVLRPTEGYLAVAVVKKANEGLTWNSLKDKKSCHTAVDRTAGWNIPMGLIVNQTGSCAFDEFFSQSCAPGRDPKSRLCALCAGDDQGLDKCVPNSKEKYYGYTGAFRCLAEDVGDVAFVKNDTVWENTNGESTADWAKNLNREDFRLLCLDGTRKPVTEAQSCHLAVAPNHAVVSRSDRAAHVKQVLLHQQALFGKNGKNCPDKFCLFKSETKNLLFNDNTECLAKLGGRPTYEEYLGTEYVTAIANLKKCSTSPLLEACAFLTR
Lactoferrin localization at the ECM: enrichment at the ECM was observed as concentration increased
